In paper PMC4336329 (PLoS ONE, 2015):
Hit rate of the full screen: of about 310,000 compounds, about 2,200 (0.71%) showed an effect of 50% or more. Effects have a minus sign here. This is one part of the list.

Molecular target: human ether-à-go-go-related gene (hERG) potassium channel (human, UniProt Q12809)
Assay: primary screen, population patch clamp on CHO cells stably expressing hERG

Sequence of human ether-à-go-go-related gene (hERG) potassium channel (Q12809 whole entry, looked up): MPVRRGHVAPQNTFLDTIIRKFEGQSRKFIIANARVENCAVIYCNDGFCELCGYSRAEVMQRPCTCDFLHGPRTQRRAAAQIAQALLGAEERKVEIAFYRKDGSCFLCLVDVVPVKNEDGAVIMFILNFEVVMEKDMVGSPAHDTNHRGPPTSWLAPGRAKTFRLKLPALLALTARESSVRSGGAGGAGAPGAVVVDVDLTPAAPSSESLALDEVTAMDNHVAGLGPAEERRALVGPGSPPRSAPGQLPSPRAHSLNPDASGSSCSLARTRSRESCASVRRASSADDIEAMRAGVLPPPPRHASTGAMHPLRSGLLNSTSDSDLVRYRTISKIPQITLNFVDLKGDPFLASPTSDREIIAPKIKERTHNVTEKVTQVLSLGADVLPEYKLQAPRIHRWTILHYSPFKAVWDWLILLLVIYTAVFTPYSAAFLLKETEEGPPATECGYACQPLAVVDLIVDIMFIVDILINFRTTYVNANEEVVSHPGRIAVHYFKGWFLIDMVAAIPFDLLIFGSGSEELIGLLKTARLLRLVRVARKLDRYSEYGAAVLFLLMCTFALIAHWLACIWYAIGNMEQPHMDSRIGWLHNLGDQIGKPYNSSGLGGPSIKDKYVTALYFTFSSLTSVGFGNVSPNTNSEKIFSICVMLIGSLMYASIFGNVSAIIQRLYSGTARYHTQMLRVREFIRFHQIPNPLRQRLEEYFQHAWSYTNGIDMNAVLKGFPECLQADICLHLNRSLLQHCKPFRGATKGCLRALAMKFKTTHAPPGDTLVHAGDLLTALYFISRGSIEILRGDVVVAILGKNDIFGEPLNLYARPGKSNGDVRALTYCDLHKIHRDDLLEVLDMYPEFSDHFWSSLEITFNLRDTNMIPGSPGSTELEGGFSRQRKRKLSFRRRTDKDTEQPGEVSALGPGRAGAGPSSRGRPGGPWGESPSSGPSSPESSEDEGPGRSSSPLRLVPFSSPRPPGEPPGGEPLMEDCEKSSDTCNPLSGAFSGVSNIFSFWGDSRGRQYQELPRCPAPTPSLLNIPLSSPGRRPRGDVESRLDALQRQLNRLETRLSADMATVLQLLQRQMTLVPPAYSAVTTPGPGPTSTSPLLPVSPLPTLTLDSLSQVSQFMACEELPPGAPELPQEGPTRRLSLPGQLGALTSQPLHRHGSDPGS

**Q.** With `N#C/C(=N\Nc1ccc(F)cc1)C(=O)C1CC1` as the molecule, how does the “hERG current change (%, negative = inhibition) at 1uM” value read?
**A.** 16.1%

**Q.** How did the “hERG current change (%, negative = inhibition) at 1uM” value turn out when `COc1ccc(S(=O)(=O)N2CCN(C(=O)c3cc(C)oc3C)CC2)cc1OC` was run?
**A.** 7.81%

**Q.** `O=C(CCc1ccccc1)Nc1ccccc1F` was tested. Which “hERG current change (%, negative = inhibition) at 1uM” value did it give?
**A.** 7.31%

**Q.** How did the “hERG current change (%, negative = inhibition) at 1uM” value turn out when `Cc1ccc(S(=O)(=O)N(C)CC(=O)N2CCCC2)cc1` was run?
**A.** 4.88%

**Q.** With `CN(C(=O)CSc1ncc(C(F)(F)F)cc1Cl)c1c(N)n(Cc2ccccc2)c(=O)[nH]c1=O` as the molecule, how does the “hERG current change (%, negative = inhibition) at 1uM” value read?
**A.** 4.38%

**Q.** How did the “hERG current change (%, negative = inhibition) at 1uM” value turn out when `CCC(=O)N1c2ccc(S(=O)(=O)N3CCN(c4ccc([N+](=O)[O-])cc4)CC3)cc2CC1C` (stereo not shown) was run?
**A.** -13.2%

**Q.** How did the “hERG current change (%, negative = inhibition) at 1uM” value turn out when `COc1cccc(NC(=O)CNC(=O)c2ccc(F)cc2)c1` was run?
**A.** 0.948%

**Q.** Which “hERG current change (%, negative = inhibition) at 1uM” value does the source give for `CC(C)(O)[C@@H]1CC(=O)[C@]2(C)[C@H](CC[C@@]3(C)[C@H](c4ccoc4)OC(=O)[C@H]4O[C@]432)[C@@]1(C)/C=C\C(=O)O` here?
**A.** 16.1%

**Q.** `CC(C)(C)C(=O)NC(=S)NNC(=O)C(c1ccccc1)c1ccccc1` was tested. Which “hERG current change (%, negative = inhibition) at 1uM” value did it give?
**A.** -1.36%

**Q.** Which “hERG current change (%, negative = inhibition) at 1uM” value does the source give for `CSCCC(C(=O)OCC(=O)c1ccc(C)c(C)c1)N1C(=O)c2ccccc2C1=O` (stereo not shown) here?
**A.** -1.15%

**Q.** `COc1ccc(C)cc1NC(=O)NCc1ccc(F)cc1` was tested. Which “hERG current change (%, negative = inhibition) at 1uM” value did it give?
**A.** 6.47%

**Q.** `CSc1ccccc1NC(=O)Cn1nnc(-c2ccc(S(C)(=O)=O)cc2)n1` was tested. Which “hERG current change (%, negative = inhibition) at 1uM” value did it give?
**A.** 13.8%

**Q.** How did the “hERG current change (%, negative = inhibition) at 1uM” value turn out when `CC(Sc1n[nH]c(N)n1)C(=O)NC1CCCCC1C` (stereo not shown) was run?
**A.** 6.82%

**Q.** With `O=C(c1cc(-c2cccc(Cl)c2)nc2ccccc12)N1CCN(c2ccccn2)CC1` as the molecule, how does the “hERG current change (%, negative = inhibition) at 1uM” value read?
**A.** 11.4%

**Q.** With `CC(C)C(=O)NC(=S)N1CCc2ccccc21` as the molecule, how does the “hERG current change (%, negative = inhibition) at 1uM” value read?
**A.** 15.7%

**Q.** How did the “hERG current change (%, negative = inhibition) at 1uM” value turn out when `Cc1ccc(CN2CCSc3ccc(C(=O)N4CCC5(CC4)OCCO5)cc32)cc1` was run?
**A.** 3.79%

**Q.** Which “hERG current change (%, negative = inhibition) at 1uM” value does the source give for `COc1ccccc1NC(=O)CSc1nnc2ccc(-c3ccccn3)nn12` here?
**A.** 3.98%

**Q.** For `CCOc1ccccc1CNCC1CCCO1.Cl` (stereo not shown), which “hERG current change (%, negative = inhibition) at 1uM” value is on record?
**A.** 10.5%

**Q.** Which “hERG current change (%, negative = inhibition) at 1uM” value does the source give for `Cc1cc(C)nc(/N=C(\N)N2CCCCC2)n1` here?
**A.** 8.51%

**Q.** With `COc1ccc(N2CCN(C(c3cccs3)C(C)NS(C)(=O)=O)CC2)cc1` (stereo not shown) as the molecule, how does the “hERG current change (%, negative = inhibition) at 1uM” value read?
**A.** 9.25%

**Q.** For `CN1CCN(S(=O)(=O)c2cnccc2N2CCN(c3cccc(Cl)c3)CC2)CC1`, which “hERG current change (%, negative = inhibition) at 1uM” value is on record?
**A.** 11.1%

**Q.** With `CC(C)c1nc2c(s1)CCc1onc(-c3ccc(Cl)cc3)c1-2` as the molecule, how does the “hERG current change (%, negative = inhibition) at 1uM” value read?
**A.** 13.9%

**Q.** For `Cc1ccc2nsnc2c1N(S(C)(=O)=O)S(C)(=O)=O`, which “hERG current change (%, negative = inhibition) at 1uM” value is on record?
**A.** 8.35%

**Q.** Which “hERG current change (%, negative = inhibition) at 1uM” value does the source give for `Br.COC(=O)COc1ccc(C(=O)Cn2c(NCCCO)nc3ccccc32)cc1` here?
**A.** 7.51%

**Q.** For `CCCCCCOC(=O)c1ccccc1N`, which “hERG current change (%, negative = inhibition) at 1uM” value is on record?
**A.** 6.63%

**Q.** For `Cc1ccc(-c2csc(N(CC3CCCO3)C(=O)c3ccco3)n2)cc1` (stereo not shown), which “hERG current change (%, negative = inhibition) at 1uM” value is on record?
**A.** 0.346%

**Q.** How did the “hERG current change (%, negative = inhibition) at 1uM” value turn out when `CC(=O)Nc1ccc(NC(=O)CCCN2C(=O)c3ccccc3C2=O)cc1` was run?
**A.** 20.8%

**Q.** For `Cc1ccccc1OCC(=O)OCC(=O)NCCNC(=O)COC(=O)COc1ccccc1C`, which “hERG current change (%, negative = inhibition) at 1uM” value is on record?
**A.** 4.01%

**Q.** For `CCOC(=O)n1c(SCC(N)=O)nc2ccccc21`, which “hERG current change (%, negative = inhibition) at 1uM” value is on record?
**A.** 3.09%

**Q.** With `Cc1cc(Br)ccc1OCC(=O)NNC(=O)C(=O)Nc1ccccc1` as the molecule, how does the “hERG current change (%, negative = inhibition) at 1uM” value read?
**A.** 13%

**Q.** How did the “hERG current change (%, negative = inhibition) at 1uM” value turn out when `COc1ccc(NC(=O)NNC(=O)COc2ccc3cc(Br)ccc3c2)cc1OC` was run?
**A.** 10.3%

**Q.** For `CCCNC(=O)c1ccccc1NC(=O)c1ccc2c(=O)n3c(nc2c1)CCC3`, which “hERG current change (%, negative = inhibition) at 1uM” value is on record?
**A.** -9.32%

**Q.** `Cc1ccc(S(=O)(=O)N2CCN(C(=O)CC(C)n3cncn3)CC2)cc1C` (stereo not shown) was tested. Which “hERG current change (%, negative = inhibition) at 1uM” value did it give?
**A.** 14.7%

**Q.** With `COc1cc(C(C(=O)NC2CCCC2)N(Cc2ccccc2)C(=O)c2snc(C(N)=O)c2N)ccc1O` (stereo not shown) as the molecule, how does the “hERG current change (%, negative = inhibition) at 1uM” value read?
**A.** 8.11%

**Q.** For `CC(C)C[C@H](NC(=O)C1(c2ccccc2)CCN(C(=O)OC(C)(C)C)CC1)C(=O)N1CCC[C@H]1C(=O)O`, which “hERG current change (%, negative = inhibition) at 1uM” value is on record?
**A.** 13.2%

**Q.** For `CCCCn1c(C)nc2cc(S(=O)(=O)N3CCOCC3)ccc21`, which “hERG current change (%, negative = inhibition) at 1uM” value is on record?
**A.** 0.87%

**Q.** With `Cc1ccc(-c2cc(C(=O)Nc3cc(C)on3)no2)cc1` as the molecule, how does the “hERG current change (%, negative = inhibition) at 1uM” value read?
**A.** 15.4%

**Q.** How did the “hERG current change (%, negative = inhibition) at 1uM” value turn out when `Cc1ccc(C(=O)CNc2ccccc2C)cc1` was run?
**A.** 12.1%

**Q.** For `CC(=O)N1CCN(S(=O)(=O)c2cccc(C(=O)Nc3ccc4c(c3)OCO4)c2)CC1`, which “hERG current change (%, negative = inhibition) at 1uM” value is on record?
**A.** -1.51%

**Q.** `CC(C)c1ccc(CNc2ncccn2)cc1.O=C(O)C(=O)O` was tested. Which “hERG current change (%, negative = inhibition) at 1uM” value did it give?
**A.** 11.8%

**Q.** `O=C(c1ccc(Cl)c(S(=O)(=O)N2CCCCC2)c1)N1CCCC(C(F)(F)F)C1` (stereo not shown) was tested. Which “hERG current change (%, negative = inhibition) at 1uM” value did it give?
**A.** 5.97%

**Q.** `Cc1ccc(S(=O)(=O)N2CCOCC2)cc1NC(=O)COC(=O)CCOc1ccc(C(C)(C)C)cc1` was tested. Which “hERG current change (%, negative = inhibition) at 1uM” value did it give?
**A.** 0.113%

**Q.** `CCOc1ccc(N(CC)C(=O)CCNC(=O)Cn2ccc3ccccc3c2=O)cc1` was tested. Which “hERG current change (%, negative = inhibition) at 1uM” value did it give?
**A.** 8.53%

**Q.** Which “hERG current change (%, negative = inhibition) at 1uM” value does the source give for `O=C(COC(=O)c1cc(S(=O)(=O)N2CCOCC2)ccc1Cl)NCc1ccco1` here?
**A.** -1.95%

**Q.** How did the “hERG current change (%, negative = inhibition) at 1uM” value turn out when `Cc1cc(Br)c(NC(=O)CCNC(=O)OCc2ccccc2)cc1C` was run?
**A.** 9.02%

**Q.** `COc1ccc(CCNC(=O)Cn2ccc3c(OC)cccc3c2=O)cc1OC` was tested. Which “hERG current change (%, negative = inhibition) at 1uM” value did it give?
**A.** -1.8%

**Q.** With `COc1ccc(-c2cc3c(=O)n(CC(=O)NCCCN4CCN(Cc5ccccc5)CC4)ncn3n2)cc1` as the molecule, how does the “hERG current change (%, negative = inhibition) at 1uM” value read?
**A.** -18.2%

**Q.** For `Cc1cc([N+](=O)[O-])nn1Cn1nc([N+](=O)[O-])cc1C`, which “hERG current change (%, negative = inhibition) at 1uM” value is on record?
**A.** -2.28%

**Q.** How did the “hERG current change (%, negative = inhibition) at 1uM” value turn out when `COC(=O)c1cc(S(=O)(=O)NCc2ccc(Br)cc2)c[nH]1` was run?
**A.** 10.4%

**Q.** With `CCOC(=O)N1CCC(N(CCN(C)C)C(=S)Nc2cccc(OC)c2)CC1` as the molecule, how does the “hERG current change (%, negative = inhibition) at 1uM” value read?
**A.** 12.7%

**Q.** How did the “hERG current change (%, negative = inhibition) at 1uM” value turn out when `COc1ccc(C(=O)NCC(C)(C)CNC(=O)c2ccc(OC)cc2)cc1` was run?
**A.** 1.4%

**Q.** With `CCn1nnnc1-c1ccc(OC)c(S(=O)(=O)Nc2ccc(OC)cc2)c1` as the molecule, how does the “hERG current change (%, negative = inhibition) at 1uM” value read?
**A.** 4%

**Q.** With `Cc1cccc(N(C(=O)c2csnn2)C(C(=O)NC2CCCCC2)c2ccncc2)c1` (stereo not shown) as the molecule, how does the “hERG current change (%, negative = inhibition) at 1uM” value read?
**A.** 16.4%

**Q.** Which “hERG current change (%, negative = inhibition) at 1uM” value does the source give for `C/C(N)=C(/C#N)C(=O)CSc1nc2ccccc2c(=O)n1Cc1ccc(C)cc1` here?
**A.** 3.32%

**Q.** With `Cc1nc2c(C)cccn2c1/C(O)=C1\C(=O)C(=O)N(CCN(C)C)C1c1ccccc1` (stereo not shown) as the molecule, how does the “hERG current change (%, negative = inhibition) at 1uM” value read?
**A.** 11.9%
